Results as given in the supplement of paper PMC11417369.
The list shows a part of the results.

These sequences were tested on PF3D7_0420300 AP2 domain 1 (GST-tagged) (assay: gcPBM binding intensity (ln(normalized median fluorescence intensity)); higher = stronger DNA binding).
Procedure, shortened: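 Binding intensity is the highest Masliner-normalised natural-log median intensity over replicate spots in either probe orientation. To obtain it, GST-tagged P. falciparum DNA-binding domains made in E. coli were incubated for 1 h on an Agilent 4 × 180k array of primer-extended double-stranded 36-bp intergenic genomic probes plus negative controls. Detection used Alexa488 anti-GST antibody with scanning at 488 nm.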

Point of comparison: “TTTTGACATTAACTTAAAAAATAAATAATTATAAAA [XGTACX_negctrl_site552]”, “gcPBM binding intensity (ln)” value 8.66. Against it:
- GAGAAATTTATACATACACACATATATATATTATAT [CACACA_site4038] — higher, 9.55
- TATCATGTTTTTATGGTGCATGAAATCACACATTGA — higher, 9
- AATACAAACCAAAAAGTAAATACATCAACATGATCA [CACACA_negctrl_site140] — higher, 9.56
- CAAATATGTCTTATTCGTACACATATATATATATAT [XGTACX_site8817] — higher, 9.44
- AAGAAAATAAAAAATAAGCATAATATGATATGATAT [TGCATGCA_negctrl_site196] — higher, 9.62
- TTTCTTTATAAATTAATATTCACAACACAAAATATA [CACACA_negctrl_site450] — higher, 8.99
- AAAAATTTGGCATACACACACACACCGACACAGACA [CACACA_site4489] — higher, 10.1
- GTGCATATAAGGAAGTGTACGAAAAAAAATATTCCA [XGTACX_site8490] — higher, 9.2
- AGTTATATGATTAATACACACAACAAATGTTTCTTC [CACACA_site1092] — higher, 9.49
- AATTTGGTGTGTGTAAAAGTATGTGTCTATATTTAT [GTGCAC_negctrl_site166] — higher, 9.84
- ATGTATGTTTATTACTATTTTGAGAATAGACTATAA [CACACA_negctrl_site1366] — higher, 8.97
- AAGAATCATATTTAAACACACATACAGATATATATA [CACACA_site5787] — higher, 9.51
- ACGACTAAATATATGAGTACATATATATATAAATAT [XGTACX_site7522] — higher, 9.25
- TGCAAAAAATTCCACACACACACACCCATATAAATA [CACACA_site1230] — higher, 10
- TCTAAAATAAATAATGCATGTTAAAAAAAAATATAT [TGCATGCA_site562] — higher, 9.33
- TATTTCCTTTTTCTTGTTATTCATGAGAAAAAATGA [CACACA_negctrl_site482] — higher, 8.93
- GAAATTTTTAATGTGGTGCACAGGAAATTTTTTCTT — higher, 9.05
- AAAATAATAATAGGCACACATATATATATATATATA [CACACA_site2058] — higher, 9.34
- AGTATACTCGGACACACACACACATATATATATATA [CACACA_site5031] — higher, 10.2
- TACATACATACAGGAGTGCATATATCACAATTATTA — higher, 9.34
- AAAAAAAAAAAAACTACACACATACAAATATTTATA [CACACA_site5430] — higher, 9.74
- ATTTATTAAATAAAAAGTACAAAATAAGAAAGAAGA [XGTACX_site6935] — higher, 9.53
- TTATATATATCTAATTGTACAATATTATGTTCATTA [XGTACX_site7479] — higher, 9.24
- ATATATAATATAATATGTACATAAAATTTTAACATT [XGTACX_site5773] — higher, 9.36
- AAAAAAACAGTGAATGCACACATTTAAGATCCATAT [CACACA_site3148] — higher, 9.51
- TATATTCCCTTAATCACACATAAATAAAAAAAAATA [CACACA_site6094] — higher, 9.09
- AGAACCATATATAAATGTACATGTTAATATGAATAA [XGTACX_site130] — higher, 9.36
- GGACAAAAAAAAAAAATAAAATAAAAATAAATAAAT [XGTACX_negctrl_site106] — higher, 9.28
- TAACACTTATAAAAAAGTACTGATGAAATAATACTA [XGTACX_site7305] — higher, 9.11
- AAATATATATGAAGATGTACATATATATATGTAAAT [XGTACX_site4039] — higher, 9.26
- AAAAATTCCAGACACACACACACATATAAATAAATA [CACACA_site1232] — higher, 9.93
- TTTGTATAGTTGTAGGTGCATATCATTTTTAAATGT [GTGCAC_site9708] — higher, 9.38
- TGTTAATAAAGGTGTACACAAAATAAAAAAAATTAT [CACACA_site4288] — higher, 9.46
- TATAATTATATTTGGAGTACAAATTTTTTTTTTTTT [XGTACX_site7494] — higher, 8.87
- AAAAAAAAAGGTAACGCATGCTTTTAGATTATATTA [TGCATGCA_site398] — higher, 9.07
- AAGTATGCTTGCTACTTATTAAGTGGCAATATAATT [XGTACX_negctrl_site74] — higher, 8.93
- AATTAAAATATATATATACACACGTAATTATATATA [CACACA_site3819] — higher, 9.35
- ATTGTGGCAATATATTGTACATGTAATATAAATATA [XGTACX_site5415] — higher, 9.28
- AAAAAAAAAAAAAAGAGTACTTTTTTCTCATTACTA [XGTACX_site8353] — higher, 9.01
- TCTTTTAGTTTTATCCACATAATAAAAAGCAAAAAA [GTGCAC_negctrl_site368] — higher, 8.99
- AAAAAAAAAAAAATAGGTACGTAAATATTTCTTTAA [XGTACX_site6423] — higher, 9.18
- TATTCTTCAATTTAAAGTACAAAAATTACTATACTT [XGTACX_site6599] — higher, 9.06
- TATTCTAATTTTTAAACACACAAATATAAATAAGTA [CACACA_site3149] — higher, 9.2
- TATTCATATTTAAAGGTGCAATATTTATTTTGTACA — higher, 8.99
- CTATTTATTATATATACATGCATATATATATTAATA [TGCATGCA_site527] — higher, 9.06
- TAAAAATGTGTATGTACACACTTTATTTTTAATACA [CACACA_site7235] — higher, 9.23
- TATTAAACGAAACACACACACACACCCATATATAAA [CACACA_site759] — higher, 10.2
- AAAAAGAATGTGAACACACACATTGAATCTAATTTA [CACACA_site6711] — higher, 9.44
- GATAATTATGGACACACACACACACCCACAACTAAA [CACACA_site8824] — higher, 10.3
- TATATAAAAAATTCAATACACACCATATATAAATAT [CACACA_site3987] — higher, 9.66
- ACATATAATATATATATATATATATATATATATAAT [GTGCAC_negctrl_site648] — higher, 9.09
- TACATATAATATATTGCACACGTCAGAATAATATAG [CACACA_site1744] — higher, 9.39
- TTTCTTTCTTCACATATATATATATATATATTTATA [TGCATGCA_negctrl_site341] — higher, 9.27
- TAATAGAATATGATGGTGCAGCAGTCTTATTTTTCA — higher, 9.22
- TTTTATAATATTTAAAGTACATTCTAAAAATATAAT [XGTACX_site8033] — higher, 8.83
- TTAGCCATTAATTCTCTACACACCTTTATGTTATTT [CACACA_site9212] — higher, 9.78
- AAATAAAATAAAATAAAATAAAATTCTTTGATACCT [TGCATGCA_negctrl_site604] — higher, 9.16
- TATAATTATTTTTTTCTAAATATTATAAGGTATTCA [GTGCAC_negctrl_site205] — higher, 8.89
- CTTTTTAATAAATATACACACACAAAAAAAAAAAAA [CACACA_site9316] — higher, 9.73
- CACTTTATACGTAATTGTACTTTTTCTTTTTTTTAT [XGTACX_site3175] — higher, 9.62
- ACTTACTAATTAATGGGTACATACACACATATATAC [XGTACX_site1362] — higher, 9.67
- TATTCAAAGAAAGACAGTACGTGTAGCAAACAACCT [XGTACX_site4218] — higher, 9.47
- TAAATAAAGTATAATGCATGCTATTATAATATTAAT [TGCATGCA_site825] — higher, 9.24
- AATAAAAAAATAGAAACACACATTAAAAAAAATAAA [CACACA_site1333] — higher, 9.72
- ATGATATATAGACACACACACATATTTATATACATT [CACACA_site6404] — higher, 10
- TATTTTTCCATATGCACACACACCGTATATATAATA [CACACA_site1127] — higher, 10
- ATAACAAAATAAAACACACACACAAATGTACATATA [CACACA_site2425] — higher, 10.3
- AAATAAATAATTTAATGTACATATATAATATATATA [XGTACX_site1831] — higher, 9.14
- CATATACACCAACACACACACACACCCACAAAAAAA [CACACA_site496] — higher, 10.2
- TTAAAGAATATTTTCACACATAAAAATTTTAATTTA [CACACA_site4290] — higher, 8.81
- TTATAAAACACAAAATGTACAAAAAATTATAATTAA [XGTACX_site6859] — higher, 9.29
- AATATTATTATCTTACCACACACAATCTACGAAAAG [CACACA_site8006] — higher, 9.49
- TATATATATATAAGTGCACACTGAACCAAGAAAATT [CACACA_site5637] — higher, 9.58
- TATGTCTTGTTGTAAAATATTTATTAACAAATTGGC [CACACA_negctrl_site1452] — higher, 8.89
- TTAATAAAAATATATCCACACACATATATATATATG [CACACA_site8091] — higher, 9.66
- ATCATTTATTTTTTAAAAGTATATATATATATATAT [CACACA_negctrl_site220] — higher, 9.14
- TTTTTTTTTTTTTAAATAATCATACATGTGAAATTG [GTGCAC_negctrl_site328] — higher, 8.69
- AAATATAAGTTTTATTGTACATTATATAGCATATTT [XGTACX_site6618] — higher, 9.16
- ACATATTATAACATATGTACATATATATATATATAA [XGTACX_site5567] — higher, 9.21
- TATCATATAAAACATGCACACATATGTACTCTTATA [CACACA_site9249] — higher, 9.52
- AAAAAATAAGATTGTACACACATAAATTCTTTGTCA [CACACA_site2089] — higher, 9.39
- CGTTCTATTTAGATATGTACTTAAATATATGATCAT [XGTACX_site2936] — higher, 9.2
- AAAGTAAAAAAAAAAACATGCATACGCTAATTTTTA [TGCATGCA_site301] — higher, 8.97
- GATATGTTAAATATATGTACATATATAAACCCAAAC [XGTACX_site6601] — higher, 9.68
- AAAAAGTGATTAAAATGTACAAAATGCATAAAAGAA [XGTACX_site6625] — higher, 9.6
- ATTTTAATACTTTTATATTAAATGTAGCACATCATA [XGTACX_negctrl_site273] — higher, 8.94
- CATTTTTTGCTTTCAACACACATACAATATAAATAA [CACACA_site7858] — higher, 9.31
